Data published in US20080311122A1, “Antagonists of Hmgb1 and/or Rage and Methods of Use Thereof” (Medimmune, LLC, priority 2005, published 2008).

Legend:
[1] = molecular target: T1, recombinant HMG1 binding to RAGE-Fc (Homo sapiens, UniProt P09429); assay: HMG1 binding to RAGE-Ig by ELISA; details: at the concentrations tested
T1 construct: made in house; host or cells: E. coli (HMG1)
T1 sequence (P09429 1-215): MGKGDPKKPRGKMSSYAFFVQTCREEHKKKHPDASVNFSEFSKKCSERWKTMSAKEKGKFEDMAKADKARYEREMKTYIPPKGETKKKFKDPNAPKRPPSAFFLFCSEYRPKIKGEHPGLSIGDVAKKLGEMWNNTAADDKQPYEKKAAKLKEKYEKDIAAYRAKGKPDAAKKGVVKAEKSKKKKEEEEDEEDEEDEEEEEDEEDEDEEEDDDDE
Description: HMG1 binding to RAGE-Ig by ELISA: 50 μl/well of RAGE-Fc fusion protein at 5 μg/ml in PBS was added to each well of an ELISA plate and incubated overnight at 4° C. The plate was then blocked with 200 μl of 5% milk at 37° C. for 1 hr and washed 3× with PBS/Tween. 50 μl/well of diluted HMGB1 solution. For dose curves, HMGB1 concentrations started at 4 ug/ml in PBS. For antibody blocking the HMGB1 was preincubated in another plate with human anti-HMG1 antibodies or buffer, then transferred to the RAGE-coated plate. The plates were then incubated at room temperature for 2 hours and washed 3×. To detect any HMG1 bound to the immobilized RAGE-Fc a mixture of biotinylated mouse anti-HMG1 mAbs (10D4, 4H11, 3E10 and 5C12) each at 1 ug/ml, total Ab: 4 ug/ml, were added to each well and the plate was incubated for 1 hour at room temperature. The plate was then washed and Strepavidin-HPR was added to each well and incubated 15 min. The plate was then washed 3× and blotted dry. 100 μl of TMB developing agent was added and the plate read at 650 nm. Values were calculated as percent of inhibition with HMG1 alone equal to 0% inhibition. The data in FIG. 9 and summarized in Table 1 represent the average of two separate experiments.

HMGB-1 = molecular target: T2, HMGB-1 (Homo sapiens, UniProt P09429); assay: Antibody HMG1 binding competition via BIAcore analysis
T2 sequence (P09429 1-215): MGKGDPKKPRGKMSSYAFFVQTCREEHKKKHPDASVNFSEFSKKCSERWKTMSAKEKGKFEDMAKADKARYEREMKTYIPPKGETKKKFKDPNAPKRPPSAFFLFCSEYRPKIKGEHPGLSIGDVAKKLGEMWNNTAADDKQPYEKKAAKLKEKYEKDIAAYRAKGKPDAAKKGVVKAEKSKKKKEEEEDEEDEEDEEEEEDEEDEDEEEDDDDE
Description: Antibody HMG1 Binding Competition via BIAcore Analysis: All experiments were performed on a BIAcore 3000 instrument (BIAcore, Inc., Piscataway, N.J.). The HMGB-1 protein was immobilized onto a CM5 sensor using a standard amine coupling chemistry protocol, as described in the BIAcore Handbook (BIAcore, Inc., Piscataway, N.J.). Briefly, the CM5 surface subject to the NHS/EDC activation. After activation a HMGB-1 was injected over the surface at a concentration of 100 nM or 200 nM (in 10 mM NaOAc, pH4) to a surface density of between 1100 and 1200 RU's. Following this, unreacted sites on the sensor chip surface were “capped” with an injection of 1M ethanolamine. For reference purposes, a blank flow cell was also prepared, utilizing this same procedure that was used to immobilize HMGB-1, but without any ligand.
MAbs G2, G4, G9, S6 and Synagis were prepared at 1 uM and 2 uM. All mAb solutions were prepared in HBS-EP buffer (BIAcore, Inc., Piscataway, N.J.). Each cycle started with a 100 μL injection of the first mAb, injected at 1 μM, followed by a second 100 μL injection of a 1:1 mixture of two, 2× concentration mAbs, such that the final concentration of each component mAb in the mixture is equivalent to the first injection. […]
Once the entire set had been collected, the maximum RU responses for each mAb after each injection cycle was recorded. […]

[2] = tested on: HMG1 (recombinant, native; immobilized, soluble); assay: Direct and sandwich (capture) ELISA comparing forms of HMG1; type: binding
Description: (§1) Direct ELISA (immobilized HMG1): Individual wells of a 96-well immunoplate (EIA/RIA plate, High binding, Costar) were coated with HMGB-1 at 5 μg/ml in PBS at 4° C. overnight. The plate was then blocked with 4% milk powder dissolved in PBS at 37° C. for 1 hour. The blocking solution was removed and replaced with human anti-HMG1 antibodies at various concentrations (see FIG. 4A). The plate was then washed (ELX-405 Plate washer, BIO-TEK) and secondary antibody (anti-human IgG-HRP, PIERCE) was added at a final concentration of 1:125,000 at 37° C. for 1 hour. HRP activity was detected with Sureblue HRP substrate (KPL). Plates were read at 450 nm using a Kinetic Microplate Reader (Molecular Devices).
(§2) Sandwich ELISA (soluble HMG1): Immunoplates (EIA/RIA plate, High binding, Costar) were coated with anti human IgG Fc at 10 μg/ml in PBS (pH 7.2) and incubated at 4° C. overnight. The coating reagent was removed and the plates were rinsed briefly with PBS. The plates were then blocked with 4% milk for 1 hour at 37° C. and rinsed with PBS. The anti-HMG1 antibodies were diluted in 4% milk. For serial dilutions, the antibodies were used at a starting concentration of 20 μg/ml. […] HRP activity was detected with Sureblue HRP substrate (KPL). Plates were read at 450 nm using a Kinetic Microplate Reader (Molecular Devices).

[3] = molecular target: T3, HMG1 (recombinant, native; immobilized, soluble) (Homo sapiens, UniProt P09429); assay: as above; type: binding
T3 construct: made in house; host or cells: E. coli
T3 sequence (P09429 1-215): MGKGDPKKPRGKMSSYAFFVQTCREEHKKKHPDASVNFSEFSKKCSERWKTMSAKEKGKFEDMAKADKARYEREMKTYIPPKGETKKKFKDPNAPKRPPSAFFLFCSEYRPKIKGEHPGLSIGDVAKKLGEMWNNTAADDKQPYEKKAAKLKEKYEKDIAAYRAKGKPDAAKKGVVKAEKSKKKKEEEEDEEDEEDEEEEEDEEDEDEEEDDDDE
Description: as §1, §2

B1: S6: human anti-HMG1 antibody, ATCC PTA-6143; VL/VH aa SEQ ID NO: 9/11 (antibody, listed as Homo sapiens, V domains shown)
VH: EVQLLESGGGLVQPGGSLRLSCAASGFTFSWYDMSWVRQAPGKGLEWVSRISPSGGYTMYADSVKGRFTISRDNSKNTLYLQMNSLRAEDTAVYYCARLEVGATSGGTAFDIWGQGTMVTVSS
VL: [gap - about 100 residues]
[1]
  block of recombinant HMG1 binding to RAGE: significant ability to block the binding of HMG1 to RAGE
HMGB-1
  binding sites on HMGB1 by BIAcore competition: bind to either the same site or sites that are highly related perhaps overlapping
[2]
  binding to recombinant HMG1 versus native HMG1: better binding to rHMG1; also recorded: bind better to recombinant HMG1 than to native nuclear HMG1
[3]
  binding to native nuclear, necrotic (released) and activated HMG1: doesn't bind well to any native form of HMG1; also recorded: some binding of released HMG1; also recorded: bind with differing affinities to the various forms

“Also recorded” adds a separate entry of the source.
